In PubChem BioAssay AID485344 (National Center for Advancing Translational Sciences (NCATS), 2010):
Where “and” joins values, the source holds several entries; their conditions need not be identical. Equal values may be shown once. Hit rate of the full screen: of about 340,000 compounds, about 6,900 (2%) were called active. Rule as the data show it: active = inhibition above about 30%; inactive = below that, where a call was filed. The list shows a part of the results, in another mix than the full data. Entries without a call were filed so in the source.
Also: 0% is about no effect.

These molecules were tested against D(2) dopamine receptor (Homo sapiens) (UniProt P14416) (assay: HTS Assay for Allosteric Antagonists of the Human D2 Dopamine Receptor: Primary Screen for Antagonists). Settings: HEK293 TREx D2 cells, calcium flux, dopamine EC80; at 10 µM; stronger effect = higher value.
UniProt P14416, sequence (P14416 whole entry, looked up): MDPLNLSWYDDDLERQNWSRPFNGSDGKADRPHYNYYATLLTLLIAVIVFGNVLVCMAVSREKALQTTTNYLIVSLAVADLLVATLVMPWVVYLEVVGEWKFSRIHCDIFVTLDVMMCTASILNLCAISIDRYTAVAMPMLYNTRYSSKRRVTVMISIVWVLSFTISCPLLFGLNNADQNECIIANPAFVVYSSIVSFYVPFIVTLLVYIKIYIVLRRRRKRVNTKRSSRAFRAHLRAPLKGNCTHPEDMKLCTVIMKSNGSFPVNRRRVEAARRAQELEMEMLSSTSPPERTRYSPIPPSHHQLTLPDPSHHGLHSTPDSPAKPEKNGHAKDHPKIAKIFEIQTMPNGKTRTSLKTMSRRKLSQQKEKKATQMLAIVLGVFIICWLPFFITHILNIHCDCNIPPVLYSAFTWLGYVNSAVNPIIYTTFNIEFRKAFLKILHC
Method in brief: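 HEK293 T-REx D2 cells, tet-induced, calcium dye no-wash. Cpd pintool add, 180 s kinetic, then EC80 DA, 180 s kinetic. Ca flux read.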
Work on `CCOC(=O)CNc1nc2ccccc2n2c(C)nnc12` yielded an inhibition of -16.3%.
`CCc1ccc(NC(=O)CSc2nc3c(sc4ccccc43)c(=O)n2CCCOC)cc1` showed an inhibition of 19.6%.
`Cc1ccc(CNC(=O)c2cnc(N3CCCCC3)c3ccccc23)cc1` showed an inhibition of -2.58%.
`CC1CCC(NC(=O)c2ccc3c(c2)N(Cc2ccccc2)C(=O)c2ccccc2S3(=O)=O)CC1` (stereo unspecified) gave an inhibition of 12.4%.
In the case of `COc1ccccc1CNC(=O)CCc1c(C)nc2c(c(C)nn2-c2ccc(C)c(C)c2)c1C`, the inhibition is reported as 10.8%.
`CCCCn1c(=N)c(S(=O)(=O)c2ccc(Cl)cc2)cc2c(=O)n3cccc(C)c3nc21` gave an inhibition of 14.9%.
With `CC(C)(C)OC(=O)N1CCC(c2c(C(=O)NCc3ccccc3)cnn2-c2ccccc2)CC1` the inhibition was -12.7%.
`Cc1cccc(Nc2c(-c3cccs3)nc3nc(C)cc(C)n23)c1` showed an inhibition of 12.5%.
Molecule `CCc1ccc(CNC(=O)c2cc3c(=O)n(CC)c4ccccc4c3s2)cc1` has an inhibition of 6.13%.
In the case of `O=C(NC(=O)c1ccccc1)Nc1ccc(-n2nc(C(F)(F)F)cc2C(F)(F)F)cc1`, the inhibition is reported as -13.1%.
For `COc1ccc(NC(=O)C(=O)NCCN2CCN(C(=O)c3cccs3)CC2)cc1`, the inhibition was active: 44.4%.
`Cc1ccc(NC(=O)CSC2=Nc3ccccc3C3=NC(Cc4ccccc4)C(=O)N23)cc1C` (stereo unspecified) showed an inhibition of -1.46%.
Molecule `CCCCN(CCCNC(=O)c1ccc(Sc2ccc(Cl)cc2)c(NC(C)=O)c1)c1ccccc1` has an inhibition of -17.2%.
Work on `Cc1cc2c(cc1S(=O)(=O)CCC(=O)N1CCCC(C)C1)OCC(=O)N2` (stereo unspecified) yielded an inhibition of -3.45%.
With `Cc1ccc(-n2ncc(C(=O)NCCN3CCOCC3)c2C2CCN(C(=O)OC(C)(C)C)CC2)c(C)c1` the inhibition was -0.89%.
In the case of `COCCn1c(CCC(=O)Nc2ccc(C)c(Cl)c2)nc2cccnc21`, the inhibition is reported as 20.6%.
In the case of `N#Cc1cc2ccccc2nc1SCc1cccnc1`, the inhibition is reported as active: 30.5%.
Work on `Clc1ccc2nc(NCc3ccccc3)c3nncn3c2c1` yielded an inhibition of -12.6%.
`CCSc1ncc(Cl)c(C(=O)Nc2ccc(S(=O)(=O)N3CCC(C)CC3)cc2)n1` was tested, and the inhibition was -3.62%.
In the case of `Cc1c(Cl)cccc1NC(=O)Cn1cc(C(=O)C2CCCCC2)c2ccccc21`, the inhibition is reported as 4.84%.
`COc1ccc2cc(-c3nc(Cl)c4c5c(sc4n3)CCCC5)c(=O)oc2c1` gave an inhibition of 6.38%.
`O=C(Nc1cc(S(=O)(=O)N2CCOCC2)ccc1N1CCCC1)C1CC1` was tested, and the inhibition was active: 53.6%.
`COc1cccc(CNc2nccn(-c3cc(C)cc(C)c3)c2=O)c1` showed an inhibition of -6.86%.
`CN(C)c1ccc(-c2nc3cnccn3c2Nc2cccc(C(F)(F)F)c2)cc1` showed an inhibition of -1.87%.
`COc1ccc(NC(=O)Cn2c(=O)n(Cc3ccco3)c(=O)c3cc(OC)c(OC)cc32)cc1` was tested, and the inhibition was -4.51%.
Molecule `Cc1ccc(S(=O)(=O)NCC(c2ccc(N(C)C)cc2)N2CCc3ccccc32)cc1C` (stereo unspecified) has an inhibition of -6.81%.
Molecule `Cc1cccc(C)c1NC(=O)CSc1nc2ncccc2o1` has an inhibition of 14.7%.
With `CCc1ccc(CNC(=O)C2CCN(c3nc4ccccc4nc3C(F)(F)F)CC2)cc1` the inhibition was 1.69%.
Molecule `COc1ccc(Cn2c(CCC(=O)Nc3cccc(OC)c3)nc3cccnc32)cc1` has an inhibition of 4.15%.
Work on `CC(=O)N1CCc2cc(CNC(=O)Nc3cc(Cl)ccc3C)ccc21` yielded an inhibition of 2.96%.
Molecule `Cc1ccc(NC(=O)c2c(NC(=O)Cc3ccccc3)sc3c2CCC3)cc1` has an inhibition of 8%.
In the case of `CCOC(=O)c1c(C(=O)OCC)c(C)n(CCc2ccc(OC)c(OC)c2)c1C`, the inhibition is reported as active: 33.5%.
In the case of `CCN1C(=O)c2ccccc2Sc2ccc(NC(=O)Nc3ccccc3OC)cc21`, the inhibition is reported as -13.1%.
In the case of `CC(=O)c1cccc(NC(=O)C2=CC(c3ccc4c(c3)OCO4)=NS(=O)(=O)N2C)c1`, the inhibition is reported as 8.29% and active: 48.4%.
`Cc1cccc(CNC(=O)C(=O)Nc2ccccc2C)c1` gave an inhibition of -7.99%.
`Fc1ccccc1-n1ncc2c1ncn1nc(-c3ccccc3Cl)nc21` was tested, and the inhibition was 12%.
`CC1CCCCN1CCCNC(=O)c1[nH]c2ccccc2c1Sc1ccc(Cl)cc1` (stereo unspecified) gave an inhibition of 13.3%.
`COc1ccccc1CNC(=O)CCC1N=C2c3ccccc3N=C(SCC(N)=O)N2C1=O` (stereo unspecified) gave an inhibition of -9.71%.
With `Cc1ccc(CNC(=O)c2ccc(CSCc3ccccc3Cl)o2)cc1` the inhibition was 20.8%.
`C=CCn1c(SCC(=O)Nc2ccc(OC)cc2)nc2c([nH]c3ccccc32)c1=O` was tested, and the inhibition was active: 33.1%.
Molecule `CCOc1ccc(OC(=O)c2cn(-c3cccc(OC)c3)c(=O)c3ccccc23)cc1` has an inhibition of 5.25%.
`CCOC(=O)C1CCN(C(=O)CN2c3ccc(C(C)C)cc3-c3ccccc3S2(=O)=O)CC1` showed an inhibition of 2.74%.
`CC1CCN(C(=O)c2cc3c(=O)n(C)c4ccccc4c3s2)CC1` gave an inhibition of 6.85%.
Molecule `COc1cc(C2NC(=O)N(C)C3=C2C(=O)N(c2cccc(Cl)c2)C3)ccc1O` (stereo unspecified) has an inhibition of 6.84%.
For `O=C(CCN1CCN(c2ccccc2)CC1)N/N=C/c1ccccc1OC(F)F`, the inhibition was active: 87.7%.
For `Cc1ccc(NC(=O)c2ccc3oc(=O)c(S(=O)(=O)c4ccccc4)cc3c2)cc1C`, the inhibition was 4.12%.
Work on `Cc1ccc(NC(=O)Cn2nnc(-c3nc(-c4ccncc4)no3)c2N)c(C)c1` yielded an inhibition of -0.355%.
With `COc1ccccc1NC(=O)C1=C(C)Nc2nc(SCc3ccc(Cl)cc3)nn2C1c1ccccc1Cl` (stereo unspecified) the inhibition was -2.89%.
`CC(NC(=O)C1CCN(C(=O)c2ccc(-n3ccc4ccccc43)s2)CC1)c1ccccc1` (stereo unspecified) was tested, and the inhibition was -2.51%.
Molecule `Cc1ccc(Nc2c(-c3ccsc3)nc3cccc(C)n23)cc1` has an inhibition of 0.53%.
For `CCOC(=O)CNC(=O)c1ccc(-c2nn(C)c(=O)c3ccccc23)cc1`, the inhibition was -8.92%.
`COc1ccc(Cl)cc1NC(=O)CSC1=Nc2ccccc2C2=NC(CC(=O)NC3CCCCC3)C(=O)N12` (stereo unspecified) was tested, and the inhibition was 1.14%.
For `CC(O)CNCCCOc1cccc(C(F)(F)F)c1` (stereo unspecified), the inhibition was active: 33.8%.
In the case of `CCc1ccc(NCc2cc3ccc(OC)cc3n(CC(=O)Nc3ccc(C(C)C)cc3)c2=O)cc1`, the inhibition is reported as -5.57%.
`c1ccc(CCNCCCOc2cccc3ccccc23)cc1` was tested, and the inhibition was active: 35.2%.
`COc1cccc(-n2c(SCC(=O)Nc3cccc(Cl)c3)nc3c(oc4ccccc43)c2=O)c1` gave an inhibition of 8.19%.
Molecule `O=C(CSc1cn(CCNC(=O)c2ccccc2F)c2ccccc12)Nc1ccccc1F` has an inhibition of 6.08%.
For `Cc1c(NC(=O)CC(C)C)cccc1-c1nc2cccnc2s1`, the inhibition was 4.44%.
Work on `COc1ccc(/C=C\C(=O)NC2CC(=O)N(c3ccc(F)cc3)C2)cc1OC` (stereo unspecified) yielded an inhibition of 10.6%.
In the case of `O=C(CSc1nc2c(sc3ccccc32)c(=O)n1CCCC(=O)NC1CCCC1)Nc1ccc(F)cc1`, the inhibition is reported as -2.94%.
`CS(=O)(=O)c1oc(-c2ccc(F)cc2)nc1S(=O)(=O)c1ccc(Cl)cc1` showed an inhibition of 4.44%.
